Results on 68 cell lines are retold here after the supplement of paper PMC4967469.

Compound in this test: COc1ccc(C2=N[C@@H](c3ccc(Cl)cc3)[C@@H](c3ccc(Cl)cc3)N2C(=O)N2CCNC(=O)C2)c(OC(C)C)c1 [Nutlin-3a]
The test can be described thus: Viability of human cancer cell lines after 72 h of drug (GDSC screen). The method, then:
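Human cancer cell lines in 384-well plates, medium with 10% serum, drug for 72 h over a 256-fold dose range (nine 2-fold or five 4-fold steps up to the top dose). Adherent lines were fixed and stained with the nucleic acid dye Syto60, suspension lines read with resazurin; signal relative to control wells, capped at 0 and 100%. One two-parameter sigmoid per drug and line, fitted in a mixed model over all curves with the slope shared within a line.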

The IC50 comes from the fitted curve, where viability falls to half of the control; where the fit passes the top or lowest dose, that dose stands as a limit. The AUC spans the tested range (256-fold, ending at the top dose) of the same fit; the more sensitive the line, the further below 1.

The IC50 is the concentration that inhibits the measured activity by half. Consider “CTV-1 (acute myeloid leukaemia, suspension, top dose 8 µM)”, for which the AUC was 0.867 and the IC50 stood at 4.94 µM.
With “CW-2 (large intestine, adherent, top dose 8 µM)”, the AUC amounted to 0.925 and the IC50 was over 8 µM.
For the cell line “Ca9-22 (head and neck, adherent, top dose 8 µM)”, the AUC came out at 0.969 and the IC50 is over 8 µM.
With “Ca-Ski (cervix, adherent, top dose 8 µM)”, the AUC worked out at 0.976 and the IC50 was over 8 µM.
Taken in the same sequence, the figures for “CaR-1 (large intestine, adherent, top dose 8 µM)” were 0.975 and over 8 µM.
Regarding “Calu-3 (lung adenocarcinoma, adherent, top dose 8 µM)”, the AUC amounted to 0.967 and the IC50 is over 8 µM.
Taken in the same sequence, the figures for “Calu-6 (lung adenocarcinoma, adherent, top dose 8 µM)” were 0.935 and over 8 µM.
Taken in the same sequence, the figures for Caov-4 (ovary, adherent, top dose 8 µM) were 0.979 and over 8 µM.
As for “Capan-2 (pancreas, adherent, top dose 8 µM)”, the AUC is 0.983 and the IC50 is over 8 µM.
On to “ChaGo-K-1 (non-small cell lung carcinoma, adherent, top dose 8 µM)”, for which the AUC came out at 0.936 and the IC50 is over 8 µM.
Taken in the same sequence, the figures for “D-247MG (glioma, adherent, top dose 8 µM)” were 0.767 and 4.1 µM.
“D-263MG (glioma, adherent, top dose 8 µM)”: the AUC was 0.957 and the IC50 is over 8 µM.
In the case of “D-283MED (medulloblastoma, adherent, top dose 8 µM)”, the AUC is 0.781 and the IC50 was determined as 3.02 µM.
Taken in the same sequence, the figures for “D-336MG (glioma, adherent, top dose 4 µM)” were 0.979 and over 4 µM.
Taken in the same sequence, the figures for “D-392MG (glioma, adherent, top dose 8 µM)” were 0.842 and over 8 µM.
Taken in the same sequence, the figures for “D-423MG (glioma, adherent, top dose 8 µM)” were 0.97 and over 8 µM.
In the case of “D-502MG (glioma, adherent, top dose 8 µM)”, the AUC was determined as 0.735 and the IC50 is 3.47 µM.
The corresponding values for “D-542MG (glioma, adherent, top dose 8 µM)” are 0.982 and over 8 µM.
The corresponding values for “D-566MG (glioma, adherent, top dose 8 µM)” are 0.97 and over 8 µM.
Take “DAN-G (pancreas, adherent, top dose 8 µM)”: the AUC was determined as 0.991 and the IC50 was over 8 µM.
Taken in the same sequence, the figures for “DB (B-cell lymphoma, suspension, top dose 8 µM)” were 0.898 and over 8 µM.
Regarding “DBTRG-05MG (glioma, adherent, top dose 8 µM)”, the AUC amounted to 0.735 and the concentration for half-maximal inhibition (IC50) was 2.66 µM.
Taken in the same sequence, the figures for “DEL (lymphoid neoplasm, suspension, top dose 8 µM)” were 0.994 and over 8 µM.
Regarding “DG-75 (Burkitt lymphoma, suspension, top dose 8 µM)”, the AUC was 0.945 and the IC50 is over 8 µM.
As for “DIFI (large intestine, adherent, top dose 8 µM)”, the AUC was determined as 0.981 and the IC50 was over 8 µM.
Consider DJM-1 (skin, adherent, top dose 8 µM), for which the AUC amounted to 0.982 and the IC50 was over 8 µM.
As for DK-MG (glioma, adherent, top dose 8 µM), the AUC is 0.754 and the IC50 was determined as 3.97 µM.
Taken in the same sequence, the figures for “DMS-79 (small cell lung carcinoma, suspension, top dose 8 µM)” were 0.978 and over 8 µM.
The corresponding values for “DMS-114 (small cell lung carcinoma, adherent, top dose 8 µM)” are 0.985 and over 8 µM.
The corresponding values for “DMS-273 (small cell lung carcinoma, adherent, top dose 8 µM)” are 0.977 and over 8 µM.
For “DND-41 (T-cell leukaemia, suspension, top dose 8 µM)”, the AUC was 0.99 and the IC50 is over 8 µM.
The corresponding values for “DOHH-2 (B-cell lymphoma, suspension, top dose 8 µM)” are 0.766 and 2.88 µM.
Taken in the same sequence, the figures for “DOK (head and neck, adherent, top dose 8 µM)” were 0.894 and over 8 µM.
Regarding DOV13 (ovary, adherent, top dose 8 µM), the AUC came to 0.862 and the half-inhibitory concentration (IC50) was over 8 µM.
Taken in the same sequence, the figures for DSH1 (bladder, adherent, top dose 8 µM) were 0.984 and over 8 µM.
The corresponding values for “DU-145 (prostate, adherent, top dose 4 µM)” are 0.984 and over 4 µM.
Turning to “DU-4475 (breast, suspension, top dose 8 µM)”, the AUC is 0.88 and the IC50 was 5.69 µM.
The corresponding values for “Daudi (Burkitt lymphoma, suspension, top dose 8 µM)” are 0.938 and over 8 µM.
The corresponding values for “Detroit562 (head and neck, adherent, top dose 8 µM)” are 0.988 and over 8 µM.
Regarding “DoTc2-4510 (cervix, adherent, top dose 8 µM)”, the AUC was 0.982 and the half-inhibitory concentration (IC50) is over 8 µM.
Turning to “EB2 (Burkitt lymphoma, suspension, top dose 8 µM)”, the AUC was found to be 0.99 and the IC50 is over 8 µM.
Taken in the same sequence, the figures for “EB-3 (Burkitt lymphoma, suspension, top dose 8 µM)” were 0.982 and over 8 µM.
Turning to “EBC-1 (lung squamous cell carcinoma, adherent, top dose 8 µM)”, the AUC turned out to be 0.968 and the IC50 was over 8 µM.
The corresponding values for “EC-GI-10 (oesophagus, adherent, top dose 8 µM)” are 0.987 and over 8 µM.
“ECC10 (stomach, suspension, top dose 8 µM)”: the AUC turned out to be 0.927 and the IC50 was over 8 µM.
For the cell line “EFM-192A (breast, adherent, top dose 8 µM)”, the AUC turned out to be 0.948 and the IC50 was over 8 µM.
Taken in the same sequence, the figures for EFO-21 (ovary, adherent, top dose 8 µM) were 0.936 and over 8 µM.
Taken in the same sequence, the figures for EFO-27 (ovary, adherent, top dose 8 µM) were 0.958 and over 8 µM.
Taken in the same sequence, the figures for “EGI-1 (biliary tract, adherent, top dose 4 µM)” were 0.938 and over 4 µM.
Consider “EHEB (lymphoid neoplasm, suspension, top dose 8 µM)”, for which the AUC is 0.887 and the IC50 is over 8 µM.
On to “EJM (lymphoid neoplasm, semi-adherent, top dose 8 µM)”, for which the AUC was 0.992 and the IC50 is over 8 µM.
As for “EKVX (lung adenocarcinoma, adherent, top dose 8 µM)”, the AUC worked out at 0.941 and the IC50 is over 8 µM.
Turning to “EM-2 (chronic myeloid leukaemia, suspension, top dose 8 µM)”, the AUC amounted to 0.962 and the IC50 is over 8 µM.
The corresponding values for “EMC-BAC-1 (lung adenocarcinoma, adherent, top dose 8 µM)” are 0.957 and over 8 µM.
Taken in the same sequence, the figures for “EMC-BAC-2 (lung adenocarcinoma, adherent, top dose 8 µM)” were 0.735 and 2.7 µM.
In the case of “EN (endometrium, adherent, top dose 8 µM)”, the AUC turned out to be 0.984 and the IC50 is over 8 µM.
For “ES1 (Ewing sarcoma, adherent, top dose 8 µM)”, the AUC is 0.979 and the IC50 was over 8 µM.
The corresponding values for “ES3 (Ewing sarcoma, adherent, top dose 4 µM)” are 0.9 and over 4 µM.
Taken in the same sequence, the figures for “ES4 (Ewing sarcoma, adherent, top dose 8 µM)” were 0.737 and 2.67 µM.
Taken in the same sequence, the figures for “ES5 (Ewing sarcoma, adherent, top dose 8 µM)” were 0.946 and over 8 µM.
“ES6 (Ewing sarcoma, adherent, top dose 8 µM)”: the AUC came to 0.981 and the concentration for half-maximal inhibition (IC50) was over 8 µM.
Taken in the same sequence, the figures for “ES7 (Ewing sarcoma, adherent, top dose 8 µM)” were 0.966 and over 8 µM.
The corresponding values for “ES8 (Ewing sarcoma, adherent, top dose 8 µM)” are 0.959 and over 8 µM.
Consider ES-2 (ovary, adherent, top dose 8 µM), for which the AUC stood at 0.99 and the IC50 was over 8 µM.
“ESO26 (oesophagus, adherent, top dose 8 µM)”: the AUC came out at 0.989 and the 50% inhibitory concentration (IC50) is over 8 µM.
Taken in the same sequence, the figures for “ESO51 (oesophagus, semi-adherent, top dose 8 µM)” were 0.979 and over 8 µM.
Taken in the same sequence, the figures for “ESS-1 (endometrium, adherent, top dose 8 µM)” were 0.98 and over 8 µM.
For the cell line “ETK-1 (biliary tract, adherent, top dose 8 µM)”, the AUC came to 0.979 and the 50% inhibitory concentration (IC50) was over 8 µM.
